{"source": "the supplement of paper PMC3334620", "note": "In all, about 33,000 sequences were measured (“E-score (-0.5 to 0.5)”: median about -0.043, highest 2% from about 0.37 on). The list shows a part of the results.", "data": [{"target": "T1, Upc2 (UniProt Q12151)", "T1 sequence": "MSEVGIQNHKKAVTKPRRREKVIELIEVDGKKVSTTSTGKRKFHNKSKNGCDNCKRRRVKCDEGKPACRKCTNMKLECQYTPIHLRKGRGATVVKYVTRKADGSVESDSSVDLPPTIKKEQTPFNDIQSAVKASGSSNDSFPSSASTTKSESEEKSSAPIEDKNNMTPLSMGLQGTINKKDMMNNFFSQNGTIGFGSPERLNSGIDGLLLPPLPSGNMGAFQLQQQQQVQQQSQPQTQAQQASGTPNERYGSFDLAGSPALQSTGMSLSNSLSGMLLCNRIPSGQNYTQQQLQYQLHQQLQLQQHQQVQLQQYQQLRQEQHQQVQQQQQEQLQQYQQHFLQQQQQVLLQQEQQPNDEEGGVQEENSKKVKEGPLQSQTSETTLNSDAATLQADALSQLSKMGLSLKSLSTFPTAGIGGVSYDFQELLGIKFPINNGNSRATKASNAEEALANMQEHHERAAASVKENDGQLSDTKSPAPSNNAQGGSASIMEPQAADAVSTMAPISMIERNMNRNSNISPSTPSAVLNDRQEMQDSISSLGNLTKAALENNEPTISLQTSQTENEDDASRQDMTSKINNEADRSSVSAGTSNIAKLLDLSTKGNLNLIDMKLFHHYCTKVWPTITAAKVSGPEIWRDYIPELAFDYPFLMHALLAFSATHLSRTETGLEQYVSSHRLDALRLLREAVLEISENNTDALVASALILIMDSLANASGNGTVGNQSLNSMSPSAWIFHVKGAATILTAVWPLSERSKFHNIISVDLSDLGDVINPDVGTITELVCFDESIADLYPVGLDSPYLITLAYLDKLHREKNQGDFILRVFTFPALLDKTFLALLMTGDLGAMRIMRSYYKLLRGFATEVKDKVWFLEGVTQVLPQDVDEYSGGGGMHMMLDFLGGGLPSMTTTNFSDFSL", "test": "PBM E-score (8-mer binding enrichment) (E-score (-0.5 to 0.5)); higher = stronger / more preferred TF binding; most listed sequences are background and not binding sites", "conditions": "protein concentration: 200 nM; construct: GST-full length", "outline": "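Bound GST-tagged yeast transcription factors, applied at about 100-200 nM to double-stranded universal all-10-mer Agilent arrays, were detected with fluorescent anti-GST. Scans were normalised with masliner. A modified Wilcoxon-Mann-Whitney statistic, the E-score, was assigned to each ungapped eight-base word pooled with its reverse complement by the Universal PBM Analysis Suite.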", "values": [{"sequence": "AGAGCCGG", "PBM E-score": -0.155}, {"sequence": "TAAGGAAA", "PBM E-score": -0.0821}, {"sequence": "ATTGTTAC", "PBM E-score": 0.136}, {"sequence": "CAGTAGAG", "PBM E-score": 0.0142}, {"sequence": "CTGGCAAG", "PBM E-score": -0.237}, {"sequence": "AGCTTATG", "PBM E-score": -0.1}, {"sequence": "ATTATCTC", "PBM E-score": -0.0303}, {"sequence": "ATACTGGC", "PBM E-score": -0.126}, {"sequence": "GAATTCTC", "PBM E-score": 0.117}, {"sequence": "AGAGCCCA", "PBM E-score": -0.159}, {"sequence": "GATCCACC", "PBM E-score": -0.109}, {"sequence": "AACGTGGT", "PBM E-score": 0.0693}, {"sequence": "GGCTGGTA", "PBM E-score": -0.11}, {"sequence": "CCATCGGG", "PBM E-score": -0.00141}, {"sequence": "AGGTGCAG", "PBM E-score": -0.259}, {"sequence": "AGTTGTGC", "PBM E-score": 0.165}, {"sequence": "CCGATTCC", "PBM E-score": -0.122}, {"sequence": "AGTCTATG", "PBM E-score": -0.238}, {"sequence": "ATCAAGCA", "PBM E-score": 0.0935}, {"sequence": "TATGACGA", "PBM E-score": 0.0722}, {"sequence": "CTGCGGTC", "PBM E-score": -0.133}, {"sequence": "CCAGTATA", "PBM E-score": 0.0398}, {"sequence": "CCTTAAAA", "PBM E-score": -0.0827}, {"sequence": "ATCCATAG", "PBM E-score": -0.148}, {"sequence": "GAAAGCCC", "PBM E-score": 0.152}, {"sequence": "ATGAAGAA", "PBM E-score": -0.0689}, {"sequence": "GCTCATAC", "PBM E-score": 0.18}, {"sequence": "TAGCAGCA", "PBM E-score": -0.246}, {"sequence": "CCGACGCG", "PBM E-score": 0.16}, {"sequence": "ACATGCTC", "PBM E-score": -0.0815}, {"sequence": "ATATAAGC", "PBM E-score": 0.0337}, {"sequence": "TAATGGGA", "PBM E-score": -0.294}, {"sequence": "CCTCCAAC", "PBM E-score": -0.201}, {"sequence": "ACGATATA", "PBM E-score": 0.284}, {"sequence": "CACAGAAG", "PBM E-score": -0.291}, {"sequence": "TCATCCGA", "PBM E-score": 0.206}, {"sequence": "CACGAAAC", "PBM E-score": 0.0525}, {"sequence": "GGCAAAAC", "PBM E-score": -0.152}, {"sequence": "CCGTGCCA", "PBM E-score": -0.235}, {"sequence": "GCGACCTA", "PBM E-score": 0.129}, {"sequence": "AGGACAAC", "PBM E-score": 0.088}, {"sequence": "CCTAAGCG", "PBM E-score": 0.313}, {"sequence": "GCTGGTGA", "PBM E-score": -0.0314}, {"sequence": "GCAATACC", "PBM E-score": 0.0211}, {"sequence": "GGAAAGAC", "PBM E-score": -0.169}, {"sequence": "AGTCCAAG", "PBM E-score": -0.187}, {"sequence": "TCTATTAA", "PBM E-score": 0.0192}, {"sequence": "ATAAAAGG", "PBM E-score": -0.135}, {"sequence": "GAAATTTA", "PBM E-score": 0.232}, {"sequence": "CAACAGTG", "PBM E-score": -0.21}, {"sequence": "ACACCCCA", "PBM E-score": -0.0833}, {"sequence": "ACTATGAG", "PBM E-score": -0.218}, {"sequence": "CGATTGAG", "PBM E-score": 0.132}, {"sequence": "GAATTATA", "PBM E-score": 0.115}, {"sequence": "CTACTACA", "PBM E-score": -0.0926}, {"sequence": "ACGACTAC", "PBM E-score": 0.324}, {"sequence": "GCTGTGAC", "PBM E-score": 0.111}, {"sequence": "TCTGTTCA", "PBM E-score": -0.103}, {"sequence": "CTATAGGA", "PBM E-score": -0.106}, {"sequence": "ATCCTCCA", "PBM E-score": -0.106}, {"sequence": "CGACGACA", "PBM E-score": 0.173}, {"sequence": "AGGAGTCA", "PBM E-score": -0.0653}, {"sequence": "ACCACGGC", "PBM E-score": -0.181}, {"sequence": "CGTTCGAG", "PBM E-score": 0.27}, {"sequence": "GGAAGAAC", "PBM E-score": 0.0221}, {"sequence": "AATGTCGA", "PBM E-score": -0.106}, {"sequence": "GACTTATA", "PBM E-score": 0.248}, {"sequence": "GCATTGTA", "PBM E-score": -0.16}, {"sequence": "ATCTCGGA", "PBM E-score": 0.132}, {"sequence": "AGTGTCGA", "PBM E-score": 0.103}, {"sequence": "CAATTGTC", "PBM E-score": -0.0538}, {"sequence": "ACACTACG", "PBM E-score": 0.0827}, {"sequence": "ACGTGGCA", "PBM E-score": -0.117}, {"sequence": "CCGCCTCG", "PBM E-score": 0.208}, {"sequence": "ACCCACGG", "PBM E-score": -0.159}, {"sequence": "AGGTTGTA", "PBM E-score": 0.127}, {"sequence": "CGGGCTTC", "PBM E-score": -0.203}, {"sequence": "ACAGGAAC", "PBM E-score": 0.0706}, {"sequence": "TTCATAAA", "PBM E-score": -0.113}, {"sequence": "GGCGACGA", "PBM E-score": -0.118}, {"sequence": "AAATGCGA", "PBM E-score": 0.187}, {"sequence": "AACAGTGC", "PBM E-score": -0.0685}, {"sequence": "GAGACAAA", "PBM E-score": -0.0497}, {"sequence": "CTTAATAA", "PBM E-score": 0.0701}, {"sequence": "CACGAGTG", "PBM E-score": 0.0785}, {"sequence": "GAAATAAC", "PBM E-score": -0.0655}, {"sequence": "GGCGGTGA", "PBM E-score": -0.0751}, {"sequence": "ACCTTTAC", "PBM E-score": 0.16}, {"sequence": "CGCGCCCA", "PBM E-score": 0.00884}, {"sequence": "TAACTTAA", "PBM E-score": -0.0492}, {"sequence": "TATCAACA", "PBM E-score": -0.00369}, {"sequence": "ACGGCTAA", "PBM E-score": 0.118}, {"sequence": "GCAGTCGA", "PBM E-score": -0.137}, {"sequence": "AGAGTGTC", "PBM E-score": 0.0268}]}]}
